Source: PubChem BioAssay AID1240 (Sanford-Burnham Center for Chemical Genomics, 2008)
Screen size: about 50,000 compounds; about 800 (1.6%) showed an effect of 50% or more. The list shows a part of the results.

Each compound was assayed against Bcl-2-like protein 10 (Homo sapiens) (UniProt Q9HD36) (assay: TR3 peptide-Bcl-B binding displacers, biochemical primary FP assay, phenotype converters (AID 1240;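 note: 0% = Bcl-B with tracer peptide and DMSO and 100% = tracer peptide lacking Bcl-B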)). Conditions: GST-Bcl-B / FITC-TR3 peptide fluorescence polarization; stronger effect = higher value; compound at 3.75 mg/L.
Sequence of UniProt Q9HD36 (Q9HD36 whole entry, looked up): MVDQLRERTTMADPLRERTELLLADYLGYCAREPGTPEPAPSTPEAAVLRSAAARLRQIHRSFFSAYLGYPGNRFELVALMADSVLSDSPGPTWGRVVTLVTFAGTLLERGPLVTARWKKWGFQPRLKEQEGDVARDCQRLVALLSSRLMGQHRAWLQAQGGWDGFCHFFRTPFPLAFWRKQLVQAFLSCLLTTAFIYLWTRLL

Structure (SMILES)	displacement
Cc1ccc(N(C(=O)Nc2ccccc2)C2C=CS(=O)(=O)C2)cc1C (stereo not given)	-0.9%
Cn1c(=O)c2c(ncn2CC(=O)Nc2nc3ccccc3s2)n(C)c1=O	5.4%
O=[N+]([O-])c1cnc(Nc2cccc3nsnc23)c([N+](=O)[O-])c1	2.4%
O=C(CSc1nnnn1-c1ccccc1)N1c2ccccc2Sc2ccccc21	6.6%
Cc1ccc(C(=O)N/C(=C\c2sccc2C)C(=O)NCC(C)C)cc1	6.3%
CC1=C(C(=O)Nc2ccc(Cl)cc2)C(c2ccc(Cl)cc2)NC(=O)N1 (stereo not given)	-6.7%
COc1ccccc1NC(=O)c1c(NC(=O)C(C)(C)C)sc2c1CCCC2	-1%
Cn1/c(=N/N=C/c2c(O)ccc3ccccc23)sc2ccccc21	9.8%
CCN(CC)c1ccc(/C=C2\C(=O)NC(=S)N(c3ccc(F)cc3)C2=O)c(O)c1	6.6%
O=C(COc1ccc(Cl)cc1)Nc1cc([N+](=O)[O-])ccc1F	6.6%
COc1cc(/C=C2/SC(=S)NC2=O)ccc1OC(=O)c1cccc(Br)c1	34.3%
O=C(COc1ccc(Cl)cc1Cl)N1CCN(C(=O)COc2ccc(Cl)cc2Cl)CC1	2%
COc1cc(NC(=O)COc2ccccc2Cl)cc(OC)c1	-10.1%
CC(=O)Nc1ccc(S(=O)(=O)N2CCN(c3ccc(F)cc3)CC2)cc1	13.7%
Cc1cc(C)c(NC(=S)NC(NC(=O)c2ccc(Br)cc2)C(Cl)(Cl)Cl)c(C)c1 (stereo not given)	-0.9%
CCCC1CC(C(=O)NC(C(C)O)C2OC(SC)C(O)C(O)C2O)N(C)C1 (stereo not given)	-1.2%
COc1ccc(CCNC(=O)COc2ccccc2Cl)cc1	-5.3%
O=C(NC(=S)Nc1cccc(SC(F)(F)C(F)(F)C(F)(F)F)c1)c1cccs1	-3.3%
CCOc1cc(OCC)cc(C(=O)Nc2cccc(-c3nc4ncccc4o3)c2C)c1	-0.2%
CSc1ccc(C=NN2CCN(Cc3ccccc3)CC2)cc1	-0.6%
CC(C)CCNC(=O)c1ccccc1I	-10.3%
COc1ccc(N2C(=O)/C(=C/c3ccc(I)o3)SC2=S)cc1	14.6%
O=C(O)CN(c1cccc(Cl)c1)S(=O)(=O)c1ccccc1	13.3%
Cc1cc(OCC(=O)Nc2ccc(NC(=O)c3ccccc3)c(Br)c2)cc(C)c1Cl	7.5%

Structure (SMILES)	displacement
CCOc1ccccc1NC(=O)c1cccc([N+](=O)[O-])c1	1.1%
Nc1nnc(CC(=O)N/N=C/c2cccc(Cl)c2)s1	5.8%
O=C(O)c1ccc(N2C(=O)CC(N3CCN(c4ccccc4F)CC3)C2=O)cc1 (stereo not given)	7.2%
O=C(Nc1c[nH]c(=O)[nH]c1=O)c1ccccc1F	14.5%
CCCCOc1ccc(C2C(C#N)=C(N)OC3=C2C(=O)CC(C)(C)C3)cc1 (stereo not given)	-11.6%
COc1ccc(C)cc1NC(=O)Cc1cccc2ccccc12	-2.5%
COc1cc(C(=O)c2cc(Br)ccc2NC(=O)COc2ccccc2)cc(OC)c1OC	57.3%
COC(=O)C1=C(C)N(c2ccc(OC)cc2)C(=O)/C1=C\c1ccc(O)c(OC)c1	8.6%
COC(=O)C1=C(C)N(C)C(=O)NC1c1cccc(O)c1 (stereo not given)	-5.5%
CC1(C)Nc2ccccc2-c2c1sn(-c1cccc(Cl)c1)c2=S	2.4%
O=C(/C=C/c1ccccc1)NCc1ccc(F)cc1	-8.7%
CSc1cccc(NCc2ccc([N+](=O)[O-])cc2)c1	-6.9%
O=C(CSc1nc2sc3c(c2c(=O)[nH]1)CCCC3)NCc1ccccc1	-18.5%
COc1ccc(C2=NN(C(=O)CCC(=O)O)C(c3cccc([N+](=O)[O-])c3)C2)cc1 (stereo not given)	-1.4%
CCC(=O)N1c2ccccc2NC2=C(C(=O)CC(c3ccccc3)C2)C1c1ccc(F)cc1 (stereo not given)	-4.6%
COc1cccc(/C=C2/SC(=O)N(c3ccccc3)C2=O)c1O	10.6%
CC(Cc1ccccc1)N=C1NS(=O)(=O)c2cc([N+](=O)[O-])ccc21 (stereo not given)	10%
COC(=O)c1ccc(OCC(O)CN2CCCCC2)cc1 (stereo not given)	-10.4%
Cc1cc(Cl)ccc1NC(=O)COc1ccccc1C	-7%
O=C(c1cnn2c(C(F)(F)F)cc(-c3ccco3)nc12)N1CCN(C(c2ccccc2)c2ccccc2)CC1	-6.1%
COc1cc2c(=O)c3ccccc3sc2c(OC)c1OC	-14.2%
OC(CNc1ccc(Br)cc1)COc1ccc(OCC(O)CNc2ccc(Br)cc2)cc1 (stereo not given)	5.4%
Cc1ccc(-c2nc3ccc(C)cn3c2NC(=O)c2ccccc2)cc1	21%
COc1cc(OC)cc(C(=O)N2CCN(C3CCN(Cc4ccccc4)CC3)CC2)c1	0.3%

Structure (SMILES)	displacement
CN1CCN(NC(=O)NC23CC4CC(CC(C4)C2)C3)CC1	-3.8%
Cc1ccc(N=Cc2cc(Br)ccc2O)cc1F	-4.1%
O=C(Nc1ncc(Cc2ccc(Cl)cc2)s1)c1ccccc1Cl	6.4%
COc1ccc(/C=C/C(=O)NCc2ccc(Cl)cc2Cl)cc1	6.5%
Cc1ccc(C(=O)O)cc1N1C(=O)c2ccc(C(=O)O)cc2C1=O	6.5%
O=C1c2cccc3cccc(c23)C(=O)N1/N=C/c1ccc(Cl)cc1	21.2%
CCOc1ccc2nc(SCC(=O)Nc3cc(C)ccc3C)sc2c1	3.4%
O=C1NC(=Nc2ccc(Cl)cc2)SC1Cc1cccc(C(F)(F)F)c1 (stereo not given)	-4.4%
O=C1CCCC2=C1C(c1ccc(Cl)cc1)C1C(=O)c3ccccc3C1=N2 (stereo not given)	-4.3%
OCc1ccc(-c2ccc(OC(F)(F)F)cc2)o1	-12.3%
CC1=C(C(=O)Nc2ccccc2)C(c2ccc(O)c(O)c2)NC(=S)N1 (stereo not given)	10.7%
COc1ccc(CC(=O)O/N=C(\N)c2ccc(Cl)cc2)cc1OC	-4.4%
COc1ccc(-c2nc3ccccc3c(C(=O)NC(C)(C)C)c2C)cc1	12.2%
O=C(COc1ccc(Cl)cc1Cl)Nc1ccc(NC(=O)COc2ccc(Cl)cc2Cl)cc1	10.5%
O=C1CSC(=O)N1CN1CCCCC1	10.3%
COc1ccc(S(=O)(=O)N2CCN(C(=O)c3ccc(-c4ccccc4)cc3)CC2)cc1	-3.6%
Cc1sc2nc(C)n(CCO)c(=O)c2c1C	12.2%
COc1ccc(CN2CCN(C3CCC(C)CC3)CC2)c(OC)c1OC (stereo not given)	-18.1%
CC(C)c1ccc(/C=N/N=C2/NC(=O)CS2)cc1	-11.3%
C1CCC(N2NC2C2NN2C2CCCCC2)CC1 (stereo not given)	-1.7%
COc1ccccc1CNC(=O)C(=O)Nc1ccc(C)c(C)c1	1%
CC1=NN(c2ccccc2)C(=O)/C1=C/c1cccn1-c1ccc([N+](=O)[O-])cc1	-0.8%
